According to PubChem BioAssay AID686970 (National Center for Advancing Translational Sciences (NCATS), 2013):
Among all 360,000 compounds or so, about 6,000 (1.7%) were called active. The inconclusive results got no clear call from the source; some entries with a clear call stand among them for comparison. Calls come from the whole dose curve; as a rule, active = well fitted cell-killing curve with a large enough effect; inconclusive = small, poorly fitted or top-dose-only effect, or effect the other way; inactive = flat fitted curve, though single readings scatter. Potencies of inconclusive entries are left out as doubtful fits.

Assay: qHTS for induction of synthetic lethality in tumor cells producing 2HG: qHTS for the HT-1080-NT fibrosarcoma cell line;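 note: NT is the 2HG producing partner of a matched IDH1 knockdown line; nearly all actives have a fitted effect of over 55% in size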;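 for activity, negative = less viability: 0% = DMSO-treated cells and -100% = media-only wells without cells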
Details: HT-1080-NT fibrosarcoma viability, CellTiter-Glo ATP luminescence, 48 h; activity, negative = less viability: at 46.1 µM (top of the series) unless noted
Procedure, shortened: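 A 48-hour cytotoxicity screen used HT-1080-NT cells plated 2 hours before compound delivery. ATP-based CellTiter-Glo luminescence measured viability, normalized to DMSO and no-cell controls.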
Potency is the fitted concentration of half-maximal effect; tags give direction and shape of the fitted curve.

Row | SMILES | Potency | activity, negative = less viability
1 | c1ccc(-c2nc(N3CCN(c4ccccc4)CC3)nc(-n3ccnc3)n2)cc1 | active: 11.2 µM | –
2 | O=c1oc2ccccc2cc1-c1csc(NN=C2CCCCC2)n1 | inconclusive [cytotoxic, single point] | –
3 | COc1ccccc1CN1CC(C(=O)N2CCC(C(=O)c3ccccc3)CC2)CCC1=O (stereo unspecified) | inconclusive [cytotoxic, single point] | –
4 | CCOC(=O)C1(C)CCN1C(=O)c1ccc(N(C)C)cc1 (stereo unspecified) | inactive | –
5 | COc1ccc(C(C(=O)NC2CCCCC2)N(Cc2cccs2)C(=O)Cc2c[nH]c3ccccc23)cc1OC (stereo unspecified) | inconclusive [cytotoxic, single point] | –
6 | CS(=O)(=O)c1ccc(Cl)c(NC(=O)CNC(=O)c2ccc3c(c2)OCO3)c1 | inactive | –
7 | O=c1[nH][nH]c2cc([N+](=O)[O-])ccc12 | active: 4.11 µM | –
8 | CCOc1ccc(C(=O)c2cc([N+](=O)[O-])ccc2N2CCOCC2)cc1 | active: 0.0366 µM | –
9 | COc1c(O)c(O)c2oc(-c3ccccc3)cc(=O)c2c1OC | inactive | –
10 | CCNC(=O)/C(C#N)=C/c1c(N(Cc2ccccc2)Cc2ccccc2)nc2ccccn2c1=O | active: 23.1 µM | –
11 | O=C(NCC1CCOCC1)C1Cc2c(-c3ccccc3Oc3ccccc3)ccnc2O1 (stereo unspecified) | inconclusive [cytotoxic, single point] | –
12 | COCCCNC(=O)C1CCC(CNS(=O)(=O)c2ccc(OC)cc2)CC1 (stereo unspecified) | – | inconclusive: 7.49%
13 | COCCN1Cc2cccc(C(=O)NCc3ccccn3)c2C1=O | inactive | –
14 | O=C(OCn1ncc(Cl)c(Cl)c1=O)c1ccc(C(F)(F)F)cc1 | inconclusive [cytotoxic, single point] | –
15 | COc1ccc(-c2c(-c3ccc(O)cc3O)n[nH]c2C)cc1OC | inconclusive [cytotoxic, single point] | –
16 | CCOc1ccc(-c2cc(C(=O)NCCCN3CCN(CC)CC3)c3ccccc3n2)cc1 | inconclusive [cytotoxic, single point] | –
17 | O=C(CCCl)N1CCN(c2nc(-c3ccccc3)cs2)CC1 | inactive | –
18 | Cc1cc(N2CCN(C)CC2)nc2ccc(NC(=S)N3CCN(c4ccccn4)CC3)cc12 | active: 16.4 µM | –
19 | CC(C)c1nc2oc3c(NCC4CCCO4)ncnc3c2c2c1CCC2 (stereo unspecified) | inactive | –
20 | COc1ccc(CC(=O)N2CCN(c3ccccc3OC)CC2)cc1 | inactive | –
21 | COc1ccc(CN2c3c(Br)cccc3C(=O)CS2(=O)=O)cc1 | active: 23.1 µM | –
22 | Clc1ccc(CONc2ncnc3nonc23)c(Cl)c1 | inconclusive [cytotoxic, single point] | –
23 | O=c1nc(Oc2ccccc2)nc2ncccn12 | inconclusive [cytotoxic, single point] | –
24 | S=C(NCCc1ccncc1)Nc1ccccc1 | inactive | –

Row | SMILES | Potency | activity, negative = less viability
25 | CN(C)CCCC1(c2ccc(F)cc2)OCc2cc(C#N)ccc21 (stereo unspecified) | inconclusive [cytotoxic, single point] | –
26 | Cc1ccc(C2CC(c3cccs3)=NN2C(=O)CCl)cc1 (stereo unspecified) | active: 4.61 µM | –
27 | CC1(C)C[C@H](O)[C@]2(CO)[C@H](O)C[C@]3(C)C(=CCC4[C@@]5(C)CC[C@H](O)C(C)(C)C5CC[C@]43C)[C@@H]2C1 (stereo partly specified) | active: 20.6 µM | –
28 | CC(C)(C)[C@@H]1COC(=O)[C@H](Cc2ccc(F)cc2)CC/C=C\C[C@H](CC(=O)N(CCO)Cc2ccccc2)C(=O)N1 | inconclusive [cytotoxic, single point] | –
29 | Cc1cc(C)c2nc(N3CCC(C(=O)NCCCN4CCCCC4)CC3)sc2c1 | active: 23.1 µM | –
30 | Cc1ccc(C(=O)O/N=C(\N)c2cccnc2)cc1[N+](=O)[O-] | inconclusive [rising, full curve, poor fit] | –
31 | O=C(NCC(c1cccs1)N1CCOCC1)c1cc2ccccc2o1 (stereo unspecified) | inconclusive [cytotoxic, single point] | –
32 | CC1(C)SC(=S)N(/N=C/c2ccccc2O)C1N(O)C(=O)Nc1ccccc1 (stereo unspecified) | active: 18.4 µM | –
33 | COc1ccc(OCCSCc2nnc(NC(=O)Nc3ccc(Cl)cc3)s2)cc1 | inconclusive [cytotoxic, single point] | –
34 | Cc1ccc2c(c1)NC(=O)[C@@]1(C)[C@@H](c3ccccc3)[C@H]3COc4ccc(Cl)cc4[C@@H]3N1C2=O | inconclusive [cytotoxic, single point] | –
35 | COc1ccc(CC2SC(N)=NC2=O)cc1 (stereo unspecified) | inactive | –
36 | C#CCOCCOCCOCCNc1nc(N2CCN(C(=O)CCCCCCCCCCNC(=O)Cn3cc(C[C@@H](C)O)nn3)CC2)nc(N2CCN(C(=O)CCCCCCCCCCNC(=O)[C@@H]([C@H](C)O)n3cc(C)nn3)CC2)n1 | active: 18.4 µM | –
37 | COc1ccc(Nc2nc(C)nc3sc4c(c23)CCC4)cc1O | – | inconclusive: -20.4% [cytotoxic]
38 | O=C(CN1CCC(n2nnc3cc(C(F)(F)F)ccc32)CC1)Nc1ccc2c(c1)OCCO2 | inactive | –
39 | COc1ccc(C(=O)C2CCCN(Cc3cccn3-c3nccs3)C2)cc1OC (stereo unspecified) | – | inconclusive: -32.5% [cytotoxic]
40 | Cc1cccc(NC(=O)c2nc[nH]c2C(=O)N[C@H](C)c2ccccc2)c1 | inconclusive [cytotoxic, single point] | –
41 | O=CN(Cc1ccccc1)c1cc([N+](=O)[O-])ccc1OCc1ccccc1 | inactive | –
42 | CN(C)CCN(Cc1ccco1)C(=O)c1cc2c(Cl)nc3ccccc3c2s1 | inconclusive [cytotoxic, single point] | –
43 | Cc1cc(C)cc(CC(=O)N2CCC2(C)C(=O)NS(=O)(=O)c2ccccc2C)c1 (stereo unspecified) | inconclusive [rising, single point] | –
44 | COc1cc(/C=C/C(=O)Nc2cccc(S(=O)(=O)NC3=NCCCCC3)c2)ccc1OCC#N | inconclusive [cytotoxic, full curve] | –
45 | Cc1cc(NC(=O)/C=C/C(=O)N(c2ccccc2C)C(C(=O)NC2CCCC2)c2ccc(F)cc2)no1 (stereo unspecified) | active: 11.2 µM | –
46 | CCOC(=O)c1c(N)n(C2CC(C)(C)NC(C)(C)C2)c2nc3ccccc3nc12 | inconclusive [cytotoxic, single point] | –
47 | COc1ccc(Nc2nc(-c3cccs3)nc3ccccc23)cc1S(=O)(=O)N1CCOCC1 | active: 16.4 µM | –
48 | O=c1cc(/C=C/c2ccccc2)oc2ccccc12 | inconclusive [cytotoxic, single point] | –

Row | SMILES | Potency | activity, negative = less viability
49 | CCN(CC)S(=O)(=O)c1ccc(N/N=C/c2ccc(O)cc2O)nc1 | inconclusive [cytotoxic, partial curve] | –
50 | Cc1ccc(NC(=O)c2ncn(CCCN[C@H](C)c3cccc4ccccc34)n2)cc1C | inconclusive [cytotoxic, single point] | –
51 | CCc1ccc(NSc2ccccc2[N+](=O)[O-])cc1 | inconclusive [cytotoxic, single point] | –
52 | C=CCn1c(SCC(O)Cn2c3ccccc3c3ccccc32)nnc1-c1ccco1 (stereo unspecified) | inconclusive [cytotoxic, partial curve] | –
53 | CC(C)CNC(=S)NNC(=O)c1csc2c1CCC(C)C2 (stereo unspecified) | inconclusive [cytotoxic, single point] | –
54 | Cc1ccnc(NC(=O)CCC(=O)N(CC(=O)NC(C)(C)C)c2ccc3c(c2)OCO3)c1 | inactive | –
55 | O=C(O)c1ccccc1C=NNc1ccc([N+](=O)[O-])cn1 | – | inconclusive: 1.01% [cytotoxic]
56 | O=C(NCCN1CCC(n2c(=O)[nH]c3ccccc32)CC1)c1ccc(Cl)cc1Cl | inconclusive [cytotoxic, single point] | –
57 | CC(C)(C)N1C(=O)c2ccccc2NC(=O)C1C(=O)Nc1ccc(N2CCOCC2)cc1 (stereo unspecified) | inactive | –
58 | CCN(C(=O)c1ccccc1F)c1nc(-c2ccc(OC)cc2)cs1 | inconclusive [cytotoxic, single point] | –
59 | O=C(Nc1ccc(-c2csnn2)cc1)C(Cl)(Cl)Cl | inactive | –
60 | COC(=O)[C@@]12C[C@@H](CC(=O)NCCc3ccccc3OC)C(=O)N(Cc3ccc4c(c3)OCO4)C1=CCC(C)(C)C2 | inconclusive [cytotoxic, single point] | –
61 | COc1cc(NC2=Nc3cccc4cccc2c34)cc(OC)c1OC | inconclusive [cytotoxic, single point] | –
62 | COc1ccc(NC(=O)Cn2nnc(C(=O)NCc3ccc4c(c3)OCO4)c2N)c(OC)c1 | inconclusive [cytotoxic, single point] | –
63 | O=C1N/C(=N\N=C\c2cccs2)SC1Cc1cccc(Cl)c1 (stereo unspecified) | inconclusive [cytotoxic, single point] | –
64 | Cc1cc(C)c(C#N)c(SCC(=O)C2CC2)n1 | inactive | –
65 | N=c1n(CCN2CCCCC2)c2ccccc2n1CC(O)COc1ccccc1 (stereo unspecified) | active: 14.6 µM | –
66 | O=C(/C=C/c1cn(CC(O)CN2CCCCCC2)c2ccccc12)c1cccs1 (stereo unspecified) | active: 18.4 µM | –
67 | O=C(Nc1nccs1)c1cc(-c2ccccn2)nc2c(Cl)cccc12 | inconclusive [cytotoxic, single point] | –
68 | O=C(N/N=C/c1cccc2cccnc12)[C@H]1C[C@@H]1c1ccccc1 | inconclusive [cytotoxic, single point] | –
69 | COc1ccc(NC(=O)/C=C/c2c(Cl)nc3ccccn23)cc1 | inactive | –
70 | O=C(Nc1ccccn1)c1ccc([N+](=O)[O-])o1 | inconclusive [cytotoxic, single point] | –
71 | CSc1nc(N)nc(SCC(=O)c2ccc(C)cc2)c1C#N | inconclusive [cytotoxic, single point] | –
